According to a collection of fitness landscapes (doi:10.1038/s41467-024-54723-y):
Whole data set: some 18,000 sequences, median “TetR repression strength (sort-seq, GFP reporter)” near 0.23, cut for the highest 2% near 0.68. This is one part of the list.

What follows are sequences tested against TetR (class B, Tn10) (UniProt P04483) (assay: TetR repression strength (sort-seq, GFP reporter) (relative to tetO2 = 1); higher = stronger repression). Conditions: E. coli.
Outline: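 Escherichia coli SIG10-MAX cells carried a low-copy plasmid library in which eight operator positions were randomized between a constitutive promoter and sfGFP, and TetR was expressed constitutively. After 5 h of growth at 37 °C in LB with 50 µg/mL chloramphenicol, 10^6 cells were FACS-sorted into 13 fluorescence bins, and each bin was Illumina-sequenced. Repression strength was the top bin index plus one minus the read-weighted mean bin, divided by the value for the unaltered operator. Across three independent transformations, only library members with ≥30 reads in every replicate and a CV ≤0.5 were averaged.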

Sequence of UniProt P04483 (P04483 whole entry): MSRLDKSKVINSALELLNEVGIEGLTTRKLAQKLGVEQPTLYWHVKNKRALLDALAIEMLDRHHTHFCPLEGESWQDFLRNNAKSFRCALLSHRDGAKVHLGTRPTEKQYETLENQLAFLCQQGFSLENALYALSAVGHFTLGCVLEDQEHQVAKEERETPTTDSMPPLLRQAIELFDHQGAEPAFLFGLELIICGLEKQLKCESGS

Sequence	TetR repression strength
TCCCGGGGAGTGCGGGAGA	0.178
TCCCTAACAGTTACAGAGA	0.203
TCCCAGACAGTAGCCGAGA	0.104
TCCCGTCCAGTAGAGGAGA	0.255
TCCCCGCAAGTGTGGGAGA	0.342
TCCCCGTTAGTTGTGGAGA	0.327
TCCCGGGGAGTTGTAGAGA	0.4
TCCCCCCAAGTGGCCGAGA	0.244
TCCCCCCTAGTGTGGGAGA	0.336
TCCCCCGCAGTGCCTGAGA	0.231
TCCCGAGCAGTGGGCGAGA	0.155
TCCCCGCTAGTCAATGAGA	0.424
TCCCGAATAGTATACGAGA	0.136
TCCCGTGTAGTACCGGAGA	0.159
TCCCAATAAGTGAGGGAGA	0.148
TCCCAAGTAGTTTAGGAGA	0.174
TCCCTCTGAGTCGCGGAGA	0.205
TCCCTGTCAGTCTCGGAGA	0.249
TCCCAAATAGTAGACGAGA	0.373
TCCCGGGAAGTAGGCGAGA	0.849
TCCCGTAGAGTAGGAGAGA	0.36
TCCCTGTCAGTACGAGAGA	0.215
TCCCACTGAGTCACAGAGA	0.147
TCCCTTGTAGTCGTGGAGA	0.0733
TCCCGTCGAGTGCCAGAGA	0.311
TCCCCCAAAGTAAGCGAGA	0.184

Sequence	TetR repression strength
TCCCGGCGAGTGTGTGAGA	0.224
TCCCCCAAAGTTCAGGAGA	0.225
TCCCCCGGAGTGGGGGAGA	0.126
TCCCTATAAGTTGTTGAGA	0.191
TCCCACGGAGTCCGTGAGA	0.0963
TCCCTAGGAGTACGCGAGA	0.226
TCCCCGCGAGTTGAGGAGA	0.213
TCCCTGTCAGTGCGCGAGA	0.227
TCCCACAGAGTACACGAGA	0.171
TCCCAAGGAGTGGGAGAGA	0.193
TCCCGATCAGTTATAGAGA	0.579
TCCCGGGCAGTGACAGAGA	0.542
TCCCGTGTAGTAATGGAGA	0.238
TCCCTTGTAGTGCGTGAGA	0.0963
TCCCGCCGAGTCTGTGAGA	0.192
TCCCATAGAGTGGCGGAGA	0.267
TCCCATTAAGTTAAGGAGA	0.112
TCCCAGAGAGTAGTGGAGA	0.147
TCCCAAAAAGTAGGGGAGA	0.195
TCCCCATAAGTGTATGAGA	0.587
TCCCGAAGAGTGCATGAGA	0.251
TCCCTGATAGTTTGAGAGA	0.382
TCCCTTAGAGTGATTGAGA	0.207
TCCCTCGGAGTAAGCGAGA	0.0829
TCCCGGGAAGTCTGCGAGA	0.164
TCCCCGGCAGTCTGCGAGA	0.266

Sequence	TetR repression strength
TCCCCGCGAGTGTGCGAGA	0.295
TCCCCAGTAGTGGCCGAGA	0.211
TCCCACGCAGTTGCTGAGA	0.133
TCCCATTCAGTATACGAGA	0.238
TCCCGGTTAGTAGGCGAGA	0.143
TCCCAAACAGTTGAGGAGA	0.137
TCCCCCCCAGTGGACGAGA	0.248
TCCCTGCAAGTCGCCGAGA	0.00451
TCCCCAGGAGTGCAGGAGA	0.263
TCCCAGGGAGTCATTGAGA	0.358
TCCCGTTGAGTGTAGGAGA	0.169
TCCCCAGAAGTGGGGGAGA	0.266
TCCCGACAAGTACAGGAGA	0.207
TCCCGCGGAGTGAGTGAGA	0.391
TCCCTCGCAGTACGGGAGA	0.211
TCCCAGTCAGTTCGGGAGA	0.489
TCCCTTAGAGTATCGGAGA	0.0706
TCCCGGGCAGTCGTTGAGA	0.329
TCCCCGTTAGTGCCTGAGA	0.468
TCCCGAAGAGTGAGAGAGA	0.311
TCCCAGGCAGTGCGGGAGA	0.264
TCCCTTGAAGTAAAGGAGA	0.368
TCCCGTAGAGTGTATGAGA	0.255
TCCCGAAGAGTGCGTGAGA	0.165
TCCCCACGAGTCGGAGAGA	0.256
TCCCAGGGAGTTGCAGAGA	0.397

Sequence	TetR repression strength
TCCCTGTCAGTAAACGAGA	0.389
TCCCGTAGAGTAGCAGAGA	0.2
TCCCTTGGAGTGTGAGAGA	0.117
TCCCGTAGAGTGCGTGAGA	0.0764
TCCCTTGCAGTAAGCGAGA	0.195
TCCCGGAAAGTGAACGAGA	0.256
TCCCAGTAAGTATTGGAGA	0.201
TCCCGTTGAGTCCCTGAGA	0.323
TCCCCCGAAGTATGTGAGA	0.0891
TCCCACCGAGTAGGCGAGA	0.166
TCCCGTAAAGTTGCTGAGA	0.299
TCCCCACCAGTCAATGAGA	0.315
TCCCCGGTAGTGCTAGAGA	0.13
TCCCCTGCAGTTTAGGAGA	0.242
TCCCAATTAGTTGCGGAGA	0.29
TCCCAAATAGTCAAGGAGA	0.352
TCCCCAGCAGTCCGCGAGA	0.306
TCCCTGTAAGTACGTGAGA	0.365
TCCCACCGAGTCGGTGAGA	0.104
TCCCGGTAAGTATTCGAGA	0.175
TCCCATGGAGTGGCGGAGA	0.144
TCCCGGTTAGTCCGGGAGA	0.389
TCCCTTAGAGTACGGGAGA	0.104
TCCCATCCAGTCCGCGAGA	0.318
TCCCCCTTAGTGACGGAGA	0.0565
TCCCGGATAGTACTCGAGA	0.285

Sequence	TetR repression strength
TCCCAGCTAGTGGGAGAGA	0.101
TCCCAAACAGTGACCGAGA	0.434
TCCCCGGCAGTTTTCGAGA	0.218
TCCCGCTGAGTGATAGAGA	0.483
TCCCGGTGAGTCTCCGAGA	0.146
TCCCGGGAAGTGTTAGAGA	0.42
TCCCGACTAGTGGTTGAGA	0.266
TCCCAATCAGTGGGTGAGA	0.543
TCCCGCGAAGTATGGGAGA	0.254
TCCCAAGGAGTCGGTGAGA	0.135
TCCCGAGCAGTAGAGGAGA	0.121
TCCCACCCAGTACTCGAGA	0.194
TCCCGGGTAGTAAAGGAGA	0.053
TCCCCCCTAGTGGACGAGA	0.178
TCCCCGTCAGTTCGGGAGA	0.229
TCCCAGATAGTCCGAGAGA	0.459
TCCCCGTAAGTGCGAGAGA	0.614
TCCCCCATAGTGTAAGAGA	0.441
TCCCGAGGAGTGAGGGAGA	0.246
TCCCAGCGAGTAGCGGAGA	0.189
TCCCGCCAAGTTCTAGAGA	0.311
TCCCGGCTAGTCGTTGAGA	0.89
TCCCCTTGAGTAGGTGAGA	0.32
TCCCGTGGAGTTAGCGAGA	0.322
TCCCGGTTAGTAGGGGAGA	0.143
TCCCTGTCAGTGCAGGAGA	0.202
